# About 1,800 (2.5%) of roughly 71,000 compounds were called active. Inconclusive results, whose numbers are uncertain, are shown with a selection of clear calls. Calls follow the shape of the dose curve; as a rule, active = well fitted activation curve with a large enough effect in the signal ratio, with a control signal flat (not every such curve was filed as active); inconclusive = small, poorly fitted or top-dose-only effect, or effect the other way, or a change in a side signal; inactive = flat fitted curve, though single readings scatter; the % refers to the signal ratio. Where the call is inconclusive, the potency comes from a doubtful curve fit.
# Experiment: Cell signaling CRE-BLA (Fsk stim); as to activity change, negative = inhibition: % of control where 0% means no effect
# Conditions: CHO CRE-bla reporter (cAMP response element driving beta-lactamase), forskolin EC10, beta-lactamase ratio; activity change, negative = inhibition: at 38.2 µM (top of the series) unless noted
# Method in brief: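 Cells were plated overnight at 37 °C, exposed to compound titrations plus EC10 NKH 477 for 3 h, then given CCF4 dye for 2 h at room temperature. Blue/green (460/530 nm) ratio was converted to %Activity and AC50 values calculated.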
# Potency is read from the fitted curve at half-maximal effect; tags tell the direction and shape of the fitted curve.
Compound,"activity change, negative = inhibition",Potency
COC(=O)c1c[nH]n2c(=O)c(Cc3ccc(F)cc3Cl)c(C)nc12,inconclusive: 5.62%,–
OC(CN1CCOCC1)CN1CCOCC1,inconclusive: 5.68%,–
Cn1cnc2c(NCc3ccccc3)nc(NCCO)nc21,inconclusive: -22.9%,–
Cc1cc(NC(=O)CSc2c3c(nc4ccccc24)CCC3)no1,inactive,–
CCOc1ccc(N(CC(=O)Nc2ccc3c(c2)OCCO3)S(=O)(=O)c2c(C)noc2C)cc1,inconclusive: -6.01%,–
CCOC(=O)c1cccc(NC(=O)CN2C(=O)C3C4C=CC(C4)C3C2=O)c1 (stereo not given),inactive,–
Cc1ccc(C)c2[nH]c(=O)c(CCNC(=O)c3ccc(Br)o3)cc12,–,"inconclusive: 15.8 µM [rising, partial curve]"
CC(C)c1nc2oc3c(NCC4CCCO4)ncnc3c2c2c1COC(C)(C)C2 (stereo not given),–,active: 1 µM
CCOC(=O)c1ccccc1NC(=O)CSc1nc2ccccc2n1CC(=O)N1CCCC1,–,active: 2 µM
CC1Cc2ccccc2N1C(=O)C1CCCN1S(=O)(=O)c1ccc(Cl)cc1 (stereo not given),–,"inconclusive: 12.6 µM [rising, single point]"
CSc1nc(C)cc(SCCO)n1,inactive,–
N#Cc1nc(-c2ccc(OCc3ccccc3)cc2)oc1NCc1ccco1,–,"inconclusive: 0.631 µM [rising, full curve, poor fit]"
COc1ccc(-c2nc(C#N)c(NCC3CCCO3)o2)cc1OC (stereo not given),–,active: 12.6 µM
CCOC(=O)Cc1c(C)c2c(C)[nH]nc2oc1=O,inactive,–
O=C(CN1C(=O)COc2ccccc21)NCCCN1CCc2ccccc2C1,inconclusive: -24.5%,–
NC(=O)c1nn(-c2ccccc2)nc1N,inactive,–
CCCn1c(SCC(=O)N2CCCC2)nc2c1c(=O)n(C)c(=O)n2C,–,"inconclusive: 10 µM [rising, single point]"
CCOC(=O)N1CCC(Nc2c(-c3ccc(C)cc3)c(=O)c2=O)CC1,inactive,–
CCCn1c(=O)c(C(=O)NCc2cccnc2)c(O)c2ccccc21,–,"inconclusive: 5.01 µM [rising, partial curve]"
CCOCCCNC(=O)CN1CCN(c2ccc(F)cc2)CC1,inactive,–
CCNc1ncc2ncc(=O)n(C3CC3)c2n1,inactive,–
O=C(Nc1ccc(-c2cn3ccsc3n2)cc1)c1ccc(F)c(S(=O)(=O)N2CCOCC2)c1,–,active: 1.58 µM

Compound,"activity change, negative = inhibition",Potency
Clc1ccccc1Cn1nnc2c(NCC3CC3)ncnc21,–,"inconclusive: 10 µM [rising, single point]"
CCn1c(CCC(=O)Nc2cc(F)ccc2C)nc2cc(S(=O)(=O)N(C)C)ccc21,–,"inconclusive: 7.94 µM [rising, partial curve]"
Cc1cc(C)nc(Nc2nc(C)c3cc4c(cc3n2)OCO4)n1,inactive,–
COc1ccccc1CNc1ccnc(-c2c(C)noc2C)n1,–,"inconclusive: 15.8 µM [rising, single point]"
CCOc1ccc2[nH]c(O)c(NC(C)=O)c2c1,inconclusive: 7.76%,–
Cc1nc2ccc(NC(=O)N3CCSCC3)cc2nc1C,–,"inconclusive: 10 µM [rising, partial curve]"
Cc1occc1C(=O)N1CCCc2ccccc21,inactive,–
Cc1nc(C)c(C(=O)C2=C(O)C(=O)N(CCN3CCOCC3)C2c2cccs2)s1 (stereo not given),inconclusive: 20.6%,–
COC(=O)c1ccc2c(c1)NC(=O)C(N1CCOCC1)S2 (stereo not given),inconclusive: 8.09%,–
O=C(c1ccco1)c1nnn(Cc2ccccc2)c1-c1ccccc1,inconclusive: -6.56%,–
N#CC1=C(N)Oc2c(oc(CO)cc2=O)C1c1cccs1 (stereo not given),inconclusive: 3.23%,–
COc1ccc2[nH]c(=O)c(C(c3nnnn3CC3CCCO3)N3CCc4ccccc4C3)cc2c1 (stereo not given),–,"inconclusive: 15.8 µM [rising, single point]"
CCOC(=O)N1CCN(C(=O)c2cn(CC)c3ccc(S(=O)(=O)N4CCCC4)cc3c2=O)CC1,inconclusive: 6.05%,–
O=C(CSc1nc2ccccc2c(=O)n1Cc1ccco1)N1CCN(c2ccccc2)CC1,inactive,–
CCOC(=O)C1(c2csc(N)n2)COC(=O)C1 (stereo not given),inactive,–
CC(=O)Oc1ccccc1C(=O)Oc1ccc(/C=N/n2cnnc2)cc1,inconclusive: -28.3%,–
CCNc1ncc2nc(-c3cccc(C#N)c3)c(=O)n(Cc3cccc(OC)c3)c2n1,–,active: 0.316 µM
O=C(O)C(Cl)(c1ccccc1)c1ccccc1,inactive: 14.3% [at 7.6 µM],–
Cc1cc(NC(=O)C2C3C(=O)N(CCC(C)C)C(C(=O)NCc4ccccc4)C34C=CC2(C)O4)no1 (stereo not given),inactive,–
O=S(=O)(NCCc1cn2ccccc2n1)c1ccc(F)c(C(F)(F)F)c1,inconclusive: -17.7%,–
Cc1ccc(-n2nc(C)c3c2OC(N)=C(C#N)C3c2ccc(F)cc2)cc1 (stereo not given),inconclusive: -6.78%,–
CCCC(C)n1[nH]c(=O)c2c(C)cc(C)nc21 (stereo not given),–,"inconclusive: 12.6 µM [rising, single point]"

Compound,"activity change, negative = inhibition",Potency
COc1cccc(Cn2c(=O)c(-c3ccc(Cl)cc3)nc3cnc(OC)nc32)c1,–,active: 7.94 µM
Cc1c(C(=O)Nc2ccc(Cl)cn2)oc2ccccc12,inconclusive: -2.86%,–
CCOCCCNC(=O)C1CCN(S(=O)(=O)N(CC(C)C)CC(C)C)CC1,–,"inconclusive: 5.01 µM [falling, single point]"
Cc1nc2c(-c3ccccc3)c(C)nn2c(C)c1CCC(=O)O,–,"inconclusive: 10 µM [rising, partial curve]"
CCCCNC1C(CC)C(CCC)C(C#N)(C#N)C1(C#N)C#N (stereo not given),–,"inconclusive: 3.16 µM [falling, full curve]"
CC1(C)C=Cc2c(c3ccccc3[nH]c2=O)O1,inconclusive: 29%,–
O=C(O)C1C2C=CC(C2)C1C(=O)OC1CC2CCC1C2 (stereo not given),–,"inconclusive: 1.26 µM [falling, single point]"
Cc1sc2nc(SCc3nc4ccccc4[nH]3)n(Cc3ccco3)c(=O)c2c1C,–,active: 0.631 µM
Cc1cc(C)c(OCC(=O)Nc2ccccc2N2CCOCC2)c(C)c1,–,"inconclusive: 2.51 µM [rising, full curve, poor fit]"
CCCC1(C(=O)OC)C=C2C(=C(C(C)C)C(=O)C2C)CN1 (stereo not given),–,"inconclusive: 25.1 µM [rising, single point]"
NC(=O)C1(N2CCCCC2)CCN(c2nc(-c3ccccc3)cs2)CC1,inactive,–
COc1ccc(NC(=O)c2cc(C)on2)cc1OC,inactive,–
Cc1ccccc1-c1cncnc1NCc1cccs1,inactive,–
CN(C)c1ccnc(-c2ccccc2C(F)(F)F)n1,inconclusive: 5.4%,–
NCCNCCNCCNCCN,inactive,–
COc1ccc2c(c1)N1CCN=C1N2C,inactive,–
Cc1cnc(NC(=O)CSc2nnc(-c3ccccc3)n2Cc2ccccc2)s1,–,"inconclusive: 12.6 µM [rising, partial curve]"
CCn1c(SCC(=O)Nc2ccc3c(c2)OCO3)nnc1-c1ccccc1O,inconclusive: -27.8%,–
COc1ccc2cc(CN(CCCN3CCOCC3)Cc3nnnn3C3CCCCC3)c(=O)[nH]c2c1,–,"inconclusive: 3.16 µM [falling, single point]"
O=S(=O)(Nc1ccc2c(c1)nc1n2CCN(Cc2ccccc2)C1)c1ccc(F)cc1,inconclusive: -15%,–
Cn1c(=O)cc(OCCCC(=O)NCc2ccccn2)c2ccccc21,inconclusive: 23.7%,–
Brc1ccc(-c2nc3ccccc3s2)s1,–,"inconclusive: 3.98 µM [falling, single point]"

Compound,"activity change, negative = inhibition",Potency
C=CCn1c(NC(=O)c2ccccc2)c(C#N)c2nc3ccccc3nc21,–,"inconclusive: 3.98 µM [rising, partial curve]"
CCOC(=O)N1CCC(NC(=O)COc2cc(=O)n(C)c3ccccc23)CC1,inconclusive: 26.6%,–
COC(=O)C1=CN(C)C=C(C(=O)OC)C1c1ccsc1,–,"inconclusive: 3.16 µM [rising, partial curve]"
COc1ccc(C)cc1S(=O)(=O)N(CC(=O)N1CCCC1)c1ccccc1,inconclusive: 3.43%,–
Nc1c(N2CCN(c3ccccc3)CC2)c2ccccc2oc1=O,inconclusive: 4.53% [at 7.6 µM],–
COc1ccc(NC(=O)N2CC[C@@]3(CCCN(C(=O)c4csnn4)C3)C2)cc1,inconclusive: 4.6%,–
O=C(Nc1ccc(F)cc1F)N1CCCCC1c1cccnc1 (stereo not given),inconclusive: 6.51% [at 7.6 µM],–
COc1cccc(NS(=O)(=O)c2ccc3[nH]cc(C(=O)NCCC(C)C)c(=O)c3c2)c1,inconclusive: -19%,–
CCC(C)n1c(SC(C)C#N)nc2ccccc2c1=O (stereo not given),–,"inconclusive: 12.6 µM [rising, single point]"
C1CCN=C(Nc2nc3c(s2)CCCC3)CC1,inconclusive: -8.83%,–
CC(C)CCn1nnnc1C(c1ccc(N(C)C)cc1)N1CCN(C(=O)c2ccco2)CC1 (stereo not given),inactive,–
CCc1ccc(NC(=O)N(CCCN2CCOCC2)C(C)c2cc3cccc(OC)c3o2)cc1 (stereo not given),–,"inconclusive: 15.8 µM [falling, partial curve]"
O=c1oc2cc(OCc3nn[nH]n3)ccc2c2c1CCCC2,–,"inconclusive: 10 µM [rising, single point]"
COc1cccc(-c2nn(C)c3sc(C(=O)NCc4ccco4)cc23)c1,–,active: 12.6 µM
Cc1cccc2cc(COC(=O)C3CCCO3)c(=O)[nH]c12 (stereo not given),inconclusive: -12.5%,–
CCCN(CCC)C(=O)CSc1nc2n[nH]c(C)c2c(=N)n1-c1ccc(OC)cc1,–,active: 1.58 µM
O=C(O)CN(CC(=O)O)CC(=O)O,inactive,–
COCCCn1c(SCC(=O)NC(C)C)nnc1-c1ccccc1,inconclusive: 17%,–
CCOC(=O)c1c(NC(=O)CN2CCOCC2)sc2c1CCCC2,–,active: 12.6 µM

# Source: PubChem BioAssay AID662 (National Center for Advancing Translational Sciences (NCATS), 2007)
